Molecules are shown by their SMILES. The list shows a part of the results. Further columns of the screen follow, without active or inactive calls.

Common to all, as to assay: Primary Screen for Target Class Profiling of Small Molecule Inhibitors of Methyltransferases
Test [1] has as its target Glycine N-methyltransferase (Homo sapiens) (UniProt Q14749). As to conditions: purified enzyme, MTase-Glo SAH luminescence; measured here: GNMT inhibition; at 40 µM; stronger effect = lower value. Put shortly: (§1)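 Each enzyme was reacted with SAM and its substrate, with compounds tested once at 40 uM; SAH formed was read by MTase-Glo luminescence.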
Test [2] deals with Guanidinoacetate N-methyltransferase (Homo sapiens) (UniProt Q14353). As to conditions: purified enzyme, MTase-Glo SAH luminescence; measured here: GAMT inhibition; at 40 µM; stronger effect = lower value. Put shortly:
as §1

Test [3] concerns the target Histamine N-methyltransferase (Homo sapiens) (UniProt P50135). As to conditions: purified enzyme, MTase-Glo SAH luminescence; measured here: HNMT inhibition; at 40 µM; stronger effect = lower value. The essentials:
as §1

Test [4] addresses Nicotinamide N-methyltransferase (Homo sapiens) (UniProt P40261). As to conditions: purified enzyme, MTase-Glo SAH luminescence; measured here: NNMT inhibition; at 40 µM; stronger effect = lower value. The essentials:
as §1

Test [5] addresses Phenylethanolamine N-methyltransferase (Homo sapiens) (UniProt P11086). As to conditions: purified enzyme, MTase-Glo SAH luminescence; measured here: PNMT inhibition; at 40 µM; stronger effect = lower value. Put shortly:
as §1
On the % scale 0 is the no-effect control and ±100 the full control effect.

Regarding `O=C(CCc1ccccc1)N1CCCC(CN2CCCC2)CC1` (stereo not given), the activity change, negative = inhibition in test [1] is -10.7%; in test [2], -7.43%; in test [3], -29.4%; in test [4] it was -15.4%; in test [5] it was -8.86%.

Turning to `CC(C)OCCCNC(=O)C1c2c(n(C)c3ccccc23)SCC(=O)N1c1ccccc1F` (stereo not given), the activity change, negative = inhibition is 5.66% in test [1]; 2.56% in test [2]; -1.54% in test [3]; -4.7% in test [4]; 0.082% in test [5].

Turning to `COc1cc(OC)cc(N2C(=O)CSc3c(c4ccccc4n3C)C2C(=O)NCc2ccccc2OC)c1` (stereo not given), the activity change, negative = inhibition in test [1] is 5.87%; in test [2], 2.9%; in test [3], 0.975%; in test [4], -6.79%; in test [5], -0.066%.

Take `COc1ccc(CNC(=O)C2(C)Cn3cnc(C(=O)N4CCc5ccccc54)c3C(=O)N2C2CC2)cc1` (stereo not given): the activity change, negative = inhibition in test [1] amounted to 3.96%; in test [2] it was 1.93%; in test [3] it was 3.19%; in test [4] it was 2.04%; in test [5] it was 5.83%.

On to `CCCn1c(=O)sc2cc(NS(=O)(=O)c3ccc4c(c3)n(C)c(=O)n4C)ccc21`, for which the activity change, negative = inhibition in test [1] was -4.21%; in test [2], 0%; in test [3], 10.2%; in test [4], -3.15%; in test [5] it was 2.14%.

Take `COc1cc2c(NC(C)=O)c3n(c2cc1OC)CC(C)(C(=O)NC1CCCCCC1)N(Cc1ccccc1)C3=O` (stereo not given): the activity change, negative = inhibition in test [1] is -3.02%; in test [2], 0.579%; in test [3], -3.02%; in test [4], 5.48%; in test [5], -1.47%.

For `CC(O)/C=C/C1(O)C2(C)COC1(C)CC(O)C2` (stereo not given), the activity change, negative = inhibition in test [1] was -5.11%; in test [2] it was -14.5%; in test [3] it was 0.746%; in test [4] it was -19.2%; in test [5], -12.1%.

With `CS/C=C/C(=O)O[C@@H]1CCC2=CC(=O)C(=C(C)C)C[C@]2(C)[C@H]1C`, the activity change, negative = inhibition in test [1] was -4.67%; in test [2] it was -12.5%; in test [3], -0.799%; in test [4] it was -27.5%; in test [5], -3.16%.

Take `CC(C)(C[C@@](O)(Cc1cc2ccncc2[nH]1)C(F)(F)F)c1cc(F)ccc1O`: the activity change, negative = inhibition was -5.78% in test [1]; 4.45% in test [2]; -51.8% in test [3]; -20.8% in test [4]; -14.3% in test [5].

`C=CC(C)(O)C1CC2C3(C)CCCC(C)(C)C3C(O)C(O)C2(C)O1` (stereo not given): the activity change, negative = inhibition is -1.7% in test [1]; -1.27% in test [2]; 5.59% in test [3]; -12.1% in test [4]; -5.05% in test [5].

With `Cc1nc2ncnn2c(C)c1CCC(=O)N1C[C@@H](N)C[C@H]1C(=O)NC(C)C`, the activity change, negative = inhibition in test [1] is -0.768%; in test [2] it was -2.19%; in test [3], -3.16%; in test [4] it was -1.7%; in test [5], -2.69%.

In the case of `Cn1cc(-c2cc3c(ccn3Cc3ccncc3)c(N3CCOCC3)n2)cn1`, the activity change, negative = inhibition was -51% in test [1]; -25.4% in test [2]; -19.5% in test [3]; -12.5% in test [4]; -45.3% in test [5].

Take `CC1(C(=O)NC2CCCC2)Cn2c(ccc2-c2ccco2)C(=O)N1Cc1ccc(Cl)cc1` (stereo not given): the activity change, negative = inhibition in test [1] was -6.2%; in test [2] it was 5.48%; in test [3] it was 2.5%; in test [4] it was -8.81%; in test [5] it was -2.13%.

`COc1ccc(CC(=O)N2CCC(c3n[nH]c(=O)n3Cc3ccc(F)cc3)CC2)cc1`: the activity change, negative = inhibition in test [1] was -4.39%; in test [2], -4.93%; in test [3], -1.75%; in test [4] it was -8.27%; in test [5], 0.981%.

As for `O=C(C1CCCC1)N1CCC(C(=O)N2CCCC2c2ccccn2)CC1` (stereo not given), the activity change, negative = inhibition in test [1] is 2.5%; in test [2], 1.97%; in test [3], 0.262%; in test [4], 1.48%; in test [5], 13%.

Turning to `CC(=O)OC1CC2(C)C(CCC(C)C23Cc2c(O)cc(CO)c(C=O)c2O3)C(C)(C)C1O` (stereo not given), the activity change, negative = inhibition in test [1] is -2.78%; in test [2] it was -1.93%; in test [3] it was 10.9%; in test [4] it was -17.3%; in test [5], -9.73%.

For the compound `COCCn1nnnc1C1CC2(CCOCC2)C(=O)N1Cc1ccc(SC)cc1` (stereo not given), the activity change, negative = inhibition is -1.91% in test [1]; -1.55% in test [2]; -0.847% in test [3]; -3.28% in test [4]; -4.22% in test [5].

As to `Cc1ccc(NC(=O)CSc2nnc3n(CCC(C)C)c(=O)c4ccccc4n23)c(Cl)c1`, the activity change, negative = inhibition is 0.257% in test [1]; 0% in test [2]; 4.45% in test [3]; -6.9% in test [4]; 6.84% in test [5].

For the compound `Cc1c(NS(=O)(=O)c2ccc3c(c2)n(C)c(=O)n3C)c(=O)n(-c2ccccc2)n1C`, the activity change, negative = inhibition in test [1] amounted to 2.79%; in test [2], 0.955%; in test [3], 10.6%; in test [4], 12%; in test [5], 4.43%.

Regarding `CC1(C)CC[C@]2(C(=O)O[C@@H]3O[C@H](CO)[C@@H](O)[C@H](O)[C@H]3O)CC[C@]3(C)C(=CCC4[C@@]5(C)C[C@@H](O)[C@H](O)[C@](C)(C(=O)O)C5CC[C@]43C)C2C1O` (stereo not given in full), the activity change, negative = inhibition in test [1] is -4.82%; in test [2], -16.1%; in test [3], 0.319%; in test [4], -20.8%; in test [5] it was -7.81%.

`COCC1CN(C(C)=O)CC12CCN(Cc1cccc(Cl)c1F)CC2` (stereo not given): the activity change, negative = inhibition in test [1] was -0.816%; in test [2], -1.55%; in test [3], 2.49%; in test [4], -4.93%; in test [5] it was -4.63%.

As for `O=C(Cn1c(=O)oc2cc(S(=O)(=O)N3CCCC3)ccc21)N1CCC(Cc2ccccc2)CC1`, the activity change, negative = inhibition is -2.44% in test [1]; 1.57% in test [2]; -4.11% in test [3]; -8.76% in test [4]; -7.3% in test [5].

Regarding `Cc1c(-c2ccc3c(c2)OCO3)oc2ccc(C(O)C(C)O)cc12` (stereo not given), the activity change, negative = inhibition is 0% in test [1]; 3.41% in test [2]; 5.46% in test [3]; -9.4% in test [4]; 5.93% in test [5].

Take `CC1CCC(NC(=O)C2(C)Cn3c(cc4sccc43)C(=O)N2Cc2ccc(F)cc2)CC1` (stereo not given): the activity change, negative = inhibition in test [1] is 3%; in test [2] it was 0%; in test [3], 1.04%; in test [4] it was -7.63%; in test [5] it was -3.96%.

As to `CNc1nc(-c2ccc3c(N)n[nH]c3c2)cc(N2CC(C(=O)NC3CCCCC3)CCC2C)n1` (stereo not given), the activity change, negative = inhibition in test [1] was -7.45%; in test [2], 8.58%; in test [3], 4.96%; in test [4], -20.1%; in test [5] it was 4.34%.

With `Cc1nc(N=Nc2ccc(C(=O)O)cc2)c(COP(=O)(O)O)c(C=O)c1O`, the activity change, negative = inhibition in test [1] was -10.6%; in test [2], 4.67%; in test [3] it was -6.36%; in test [4] it was -4.72%; in test [5], 5.59%.

With `CCn1cc(CN2CCN(C(=O)CCc3ccccc3)CC2)ccc1=O`, the activity change, negative = inhibition is -16.2% in test [1]; -4.59% in test [2]; -2.62% in test [3]; -8.08% in test [4]; -17.7% in test [5].

On to `COC(=O)[C@@H]1Cc2ncn(C(C)C)c2CN1S(C)(=O)=O`, for which the activity change, negative = inhibition in test [1] was 1.25%; in test [2], -2.11%; in test [3], -1.33%; in test [4], -1.02%; in test [5] it was -8.56%.

As to `CCCn1c(=O)c2ccc(C(=O)NC(C)CC)cc2n2c(=O)n(C)nc12` (stereo not given), the activity change, negative = inhibition in test [1] is 8.19%; in test [2], 1.85%; in test [3] it was 11.3%; in test [4], 10.5%; in test [5], 9.63%.

The values are drawn from PubChem BioAssay AID1745853 (National Center for Advancing Translational Sciences (NCATS), 2022).
